Measurements taken from publication PMC7819943, “Rice protein-binding microarrays: a tool to detect cis-acting elements near promoter regions in rice”.
This is one part of the list.

Each sequence was assayed against T1, OsWOX13 (Oryza sativa, UniProt Q5QMM3 1-267) (assay: protein-binding microarray (RPBM); PBS, 2% BSA, 51.3 ng/ul salmon testes DNA, 50 uM zinc acetate, 200 nM TF, 25 C, 1 h; high values mean tight binding). Settings: protein: recombinant; tags: N-terminal polyhistidine and DsRed monomer fusion (pET32a); label: CyDye5-dUTP incorporated in the synthesized complementary strand; 3' TTTTT single-stranded linker to array surface; dsDNA, one strand shown.
T1 sequence: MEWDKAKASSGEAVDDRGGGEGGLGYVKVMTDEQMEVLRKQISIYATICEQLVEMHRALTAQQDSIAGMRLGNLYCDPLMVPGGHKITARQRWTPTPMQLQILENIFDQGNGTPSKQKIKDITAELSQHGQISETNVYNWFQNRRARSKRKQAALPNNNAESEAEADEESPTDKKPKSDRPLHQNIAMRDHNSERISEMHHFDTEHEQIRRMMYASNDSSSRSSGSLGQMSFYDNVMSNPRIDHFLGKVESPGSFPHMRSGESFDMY
Procedure, shortened: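 A custom Agilent array was converted to double-stranded form by primer extension with Cy5-dUTP and blocked with 2% BSA. Protein at 200 nM in PBS with 2% BSA, salmon testes DNA and 50 µM zinc acetate was applied for 1 h at 25 °C, followed by washing. The proteins were polyhistidine–DsRed N-terminal fusions of transcription factors, expressed in E. coli BL21-CodonPlus and Ni–NTA-purified. The binding signal is per-feature fluorescence intensity (arbitrary units) from an Axon 4000B scanner.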
In the case of “ACGAGGTCTTGATTGCACCACTAAAACAAAAGAGATCGATCGGAGTCACCTAGTGCAG”, the binding signal is reported as 5640 fluorescence intensity (a.u.). “TGGAAATTATGAACCCTGACCAGTACTAGCAGGAGCAGCACGGAGTCACCTAGTGCAG” was tested, and the binding signal was 4070 fluorescence intensity (a.u.). In the case of “GTGGTAGATTGGGGTTTTGAACCAAATATGAATGATCAAACGGAGTCACCTAGTGCAG”, the binding signal is reported as 14000 fluorescence intensity (a.u.). With “ATAAATTAATTTTAAGTTTGTTTTCTCCGCCTAATTGTTGCGGAGTCACCTAGTGCAG” the binding signal was 29100 fluorescence intensity (a.u.). With “TCTATAAATTTCTATTCAGATTTGTTTCGTTGTGTTAGAACGGAGTCACCTAGTGCAG” the binding signal was 4200 fluorescence intensity (a.u.). In the case of “CTAAATTTTCATACATACAGTTACCTTCAGTAAACATAGCCGGAGTCACCTAGTGCAG”, the binding signal is reported as 6340 fluorescence intensity (a.u.). For “CCTGATTTGGCAATTATGAAATGTTGGGCAACCAAAAGACCGGAGTCACCTAGTGCAG”, the binding signal was 39200 fluorescence intensity (a.u.). With “TCAATTAATTGATTTATAATGATTTGGTCTTATCAATCCCCGGAGTCACCTAGTGCAG” the binding signal was 53400 fluorescence intensity (a.u.). In the case of “TGTAACTGAACTCATGATCATCATATCCGATCTGATCGGACGGAGTCACCTAGTGCAG”, the binding signal is reported as 4780 fluorescence intensity (a.u.). For “GTTAAATAAATCTCTTGATATGTCATTGACTTACGCCGTGCGGAGTCACCTAGTGCAG”, the binding signal was 4920 fluorescence intensity (a.u.). “TCGATGACATTTCTTGGAATTAGACGTTTGTTAATGACATCGGAGTCACCTAGTGCAG” was tested, and the binding signal was 3250 fluorescence intensity (a.u.). With “GAACTAATCTAATCTAATGCTAATTAATGGAATTGGCGCGCGGAGTCACCTAGTGCAG” the binding signal was 27800 fluorescence intensity (a.u.). For “CTCAAAAGTTTGGGTTGATCGATCATTTGCCTACCGAAACCGGAGTCACCTAGTGCAG”, the binding signal was 65500 fluorescence intensity (a.u.). In the case of “AATTATCATTAAAATTTCTAATCAATACTTAGCCTAAGAACGGAGTCACCTAGTGCAG”, the binding signal is reported as 4120 fluorescence intensity (a.u.). For “AGGACCTGATGGATGCTGATGACTTTCGCCTAGTACTATTCGGAGTCACCTAGTGCAG”, the binding signal was 6940 fluorescence intensity (a.u.). With “AACTCTCCAATCAAATCGGCCGGGATGGAGTTTGACTTCCCGGAGTCACCTAGTGCAG” the binding signal was 7400 fluorescence intensity (a.u.). With “CTGCCTAATCAACATGATGTTTCTCATAACAGGAAAGCAACGGAGTCACCTAGTGCAG” the binding signal was 8100 fluorescence intensity (a.u.). In the case of “AATAATGTACTAATCTATCGCTCTATTTTACAGTATTTAGCGGAGTCACCTAGTGCAG”, the binding signal is reported as 4160 fluorescence intensity (a.u.). “TATTGATTGATTGGTTAGTACTACAGTACTGTAGGAGTGGCGGAGTCACCTAGTGCAG” was tested, and the binding signal was 64700 fluorescence intensity (a.u.). “AGTTATAACTGTCTTAACCGTAATCAGGACCCACTATATCCGGAGTCACCTAGTGCAG” was tested, and the binding signal was 5400 fluorescence intensity (a.u.). “AGAACCCTTAATTGACTGTAGCGGCCAATGTAGAAACACACGGAGTCACCTAGTGCAG” was tested, and the binding signal was 38400 fluorescence intensity (a.u.). For “TTCAAAATTTATCATCAACGTCAAAGATTTATTATCGAAGCGGAGTCACCTAGTGCAG”, the binding signal was 4550 fluorescence intensity (a.u.). In the case of “TAAATTAATAAATATACATGAATCAGCTAGCTAGCGGTAACGGAGTCACCTAGTGCAG”, the binding signal is reported as 3300 fluorescence intensity (a.u.). With “GGCGCCATCCACTAATTGATCACTTGGTTGCTGTTCATCACGGAGTCACCTAGTGCAG” the binding signal was 17400 fluorescence intensity (a.u.). With “ACTTAATGATACTCTCAAATTAATTAAGTTGTGTGACAGTCGGAGTCACCTAGTGCAG” the binding signal was 21300 fluorescence intensity (a.u.). With “ATCATATTAATTATTTCAAATTTACCATTTTATCATGTATCGGAGTCACCTAGTGCAG” the binding signal was 15800 fluorescence intensity (a.u.). In the case of “CCTTACTAATTGTCACAAAAGTTTAGCAGATGTCATCCTTCGGAGTCACCTAGTGCAG”, the binding signal is reported as 14600 fluorescence intensity (a.u.). “CCCCAATCACTTCAATTACAGAGCACCAAACGAATTTAGCCGGAGTCACCTAGTGCAG” was tested, and the binding signal was 37100 fluorescence intensity (a.u.). With “TGGTAAGCAATCAGCCAATCACCACAATACTGGACCGCGTCGGAGTCACCTAGTGCAG” the binding signal was 27100 fluorescence intensity (a.u.). For “TTGACTGATTGCACGTCCAACCATAATTTCTTTTCGTCCACGGAGTCACCTAGTGCAG”, the binding signal was 58600 fluorescence intensity (a.u.). With “ACTTAATTAATTACCACCTTATGCAAGTGTAATATATATTCGGAGTCACCTAGTGCAG” the binding signal was 43500 fluorescence intensity (a.u.). “TGCCGATTGATCTTTTATCCTTTGGGGCATATGCTCGAGTCGGAGTCACCTAGTGCAG” was tested, and the binding signal was 24400 fluorescence intensity (a.u.). For “ACCTTTCATTCTCAGGTTATAATTATATTATCATTTCTTTCGGAGTCACCTAGTGCAG”, the binding signal was 5420 fluorescence intensity (a.u.). With “CGGTTAAATTAACAGAGGCGGGAGGGCAGCAACAAGTCAACGGAGTCACCTAGTGCAG” the binding signal was 11600 fluorescence intensity (a.u.). In the case of “CATCTTTTCAATTAAAGCTTTACAACCTAATATAACACACCGGAGTCACCTAGTGCAG”, the binding signal is reported as 7840 fluorescence intensity (a.u.). With “GCTGACAAACAATCACGCTCTCGGCCCAAAACTTGTATCTCGGAGTCACCTAGTGCAG” the binding signal was 26800 fluorescence intensity (a.u.). In the case of “TTTACTAATAACGGATTAATTAGGCTTAATAAATTCGTCTCGGAGTCACCTAGTGCAG”, the binding signal is reported as 15800 fluorescence intensity (a.u.). “ACTCTAACAAGAATGGAAGTGATTGAAGTGTAAAATAGATCGGAGTCACCTAGTGCAG” was tested, and the binding signal was 7790 fluorescence intensity (a.u.). With “AAATATAATTATGTGAGATCTTGTTATAAAGATTTAATTGCGGAGTCACCTAGTGCAG” the binding signal was 27000 fluorescence intensity (a.u.). In the case of “CCCTTCATTTTATTGATAATTTGTTTTAGGTATATGCTCTCGGAGTCACCTAGTGCAG”, the binding signal is reported as 7450 fluorescence intensity (a.u.). “GTCCATGATTAACCATAAGTGCTATAGTAACTCACATTTGCGGAGTCACCTAGTGCAG” was tested, and the binding signal was 17800 fluorescence intensity (a.u.). In the case of “GTAATACGTAATCTAGATTTGAGATTATGTAGAACATTCTCGGAGTCACCTAGTGCAG”, the binding signal is reported as 6500 fluorescence intensity (a.u.).
